# Measurements reported in PubChem BioAssay AID1460 (National Center for Advancing Translational Sciences (NCATS), 2008).
# Out of some 270,000 compounds screened, about 5,800 (2.1%) were called active. The inconclusive results got no clear call from the source; some entries with a clear call stand among them for comparison. Calls come from the whole dose curve; as a rule, active = well fitted inhibition curve with a large enough effect; inconclusive = small, poorly fitted or top-dose-only effect; inactive = flat fitted curve, though single readings scatter. A potency beside an inconclusive call is a rough fit, not a confirmed value.
# Target: Microtubule-associated protein tau (Homo sapiens) (UniProt P10636)
# Sequence of UniProt P10636 (P10636 whole entry, looked up): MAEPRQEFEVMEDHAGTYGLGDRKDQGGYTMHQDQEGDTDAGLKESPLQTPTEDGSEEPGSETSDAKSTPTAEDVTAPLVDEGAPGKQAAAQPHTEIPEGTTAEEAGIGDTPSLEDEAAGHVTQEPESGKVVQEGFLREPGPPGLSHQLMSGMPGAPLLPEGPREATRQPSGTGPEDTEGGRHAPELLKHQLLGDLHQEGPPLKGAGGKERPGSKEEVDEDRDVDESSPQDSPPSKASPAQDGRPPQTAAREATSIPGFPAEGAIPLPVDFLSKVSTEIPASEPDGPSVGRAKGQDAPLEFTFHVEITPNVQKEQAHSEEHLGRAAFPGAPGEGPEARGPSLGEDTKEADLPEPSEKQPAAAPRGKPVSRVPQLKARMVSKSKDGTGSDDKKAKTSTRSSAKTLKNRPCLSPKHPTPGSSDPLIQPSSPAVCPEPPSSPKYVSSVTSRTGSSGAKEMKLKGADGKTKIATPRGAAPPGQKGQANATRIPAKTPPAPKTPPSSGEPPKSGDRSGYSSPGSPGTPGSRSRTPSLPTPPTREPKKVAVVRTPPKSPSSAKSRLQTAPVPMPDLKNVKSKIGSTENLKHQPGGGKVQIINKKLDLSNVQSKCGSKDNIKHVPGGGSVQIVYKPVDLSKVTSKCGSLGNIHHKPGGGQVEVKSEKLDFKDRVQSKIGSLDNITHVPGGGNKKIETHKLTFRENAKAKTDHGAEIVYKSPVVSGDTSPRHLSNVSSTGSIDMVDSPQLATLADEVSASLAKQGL
# Assay: qHTS for Inhibitors of Tau Fibril Formation, Thioflavin T Binding; note: nearly all actives have a fitted effect of over 55% in size
# Conditions: recombinant tau K18 P301L, heparin-induced fibrillization, ThT fluorescence; series mostly up to 57.4 µM; activity, negative = inhibition: at the top concentration
# Outline: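 Using a mix of unlabeled (15 uM) and Alexa 594-labeled (0.24 uM) tau K18 P301L, heparin-triggered fibrillization over 6 hr at 37 C was scored by ThT fluorescence.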
# % is set by controls: 0 for no effect and ±100 for the full control effect; potency is the fitted concentration of half-maximal effect; tags give direction and shape of the fitted curve.
SMILES,Potency,"activity, negative = inhibition"
COCCN(C(=S)Nc1ccc(C)c(C)c1)C(C)c1ccco1 (stereo not drawn),"inconclusive: 25.1 µM [inhibitor, partial curve]",–
COc1ccc(/C=N/NC(=O)c2ccc(CN3c4cccc5cccc(c45)S3(=O)=O)cc2)cc1,"inconclusive: 39.8 µM [inhibitor, single point]",–
Cc1cccc(N2CCN(C(=O)CCS(=O)(=O)c3ccc4c(c3)CC(=O)N4C)CC2C)c1 (stereo not drawn),"inconclusive: 14.1 µM [inhibitor, partial curve]",–
CC(C)(C)n1nnnc1C(c1ccccc1F)N(Cc1ccco1)CC1CCCO1 (stereo not drawn),"inconclusive: 20 µM [inhibitor, single point]",–
S=C(c1cn(CCOc2cccc3ccccc23)c2ccccc12)N1CCCC1,–,inactive: -18.2%
Clc1cccc(CNCCCSc2nnnn2-c2ccccc2)c1,–,inactive: 1.96%
COc1ccc(-c2csc(-c3c(N)c(C(=O)c4ccc(OC)c(OC)c4)n4ccccc34)n2)cc1,"inconclusive: 3.16 µM [inhibitor, full curve]",–
CCOc1ccc(NCCC(=O)c2ccc3c(c2)OCO3)cc1,active: 15.8 µM,–
COC(=O)c1c(C)oc2ccc(N(C(=O)c3ccncc3)S(=O)(=O)c3ccc(Br)cc3)cc12,"inconclusive: 14.1 µM [inhibitor, single point]",–
Cc1cc(N)ccc1NC(=O)c1ccccc1,"inconclusive: 28.2 µM [inhibitor, partial curve]",–
Cc1nc(C(=O)O)nn1-c1ccc([N+](=O)[O-])cc1,–,inactive: -12.3%
COc1ccc(/C=C/C(=O)NCc2cnn(C)c2C)cc1COc1ccc(Br)cc1,"inconclusive: 35.5 µM [activator, single point]",–
CC(=O)Nc1ccc2nc(-c3cccs3)[nH]c2c1,"inconclusive: 14.1 µM [inhibitor, partial curve]",–
COc1ccc(Cl)cc1NC(=O)Cn1c(=O)n2nc(-c3ccccc3)nc2c2ccccc21,–,inactive: -2.38%
COc1ccccc1NS(=O)(=O)c1ccc(N/N=C/c2ccccc2OCC(=O)O)c([N+](=O)[O-])c1,active: 10 µM,–
COc1ccc(C2=Nn3c(nnc3-c3cc(C)[nH]n3)SC2)cc1,"inconclusive: 39.8 µM [inhibitor, single point]",–
O=C(CSc1nnnn1Cc1ccccc1)Nc1ccc2c(c1)OCCO2,–,inactive: -10.7%
O=C(C1=C(O)C(=O)N(CCc2ccccc2)C1c1cccnc1)c1ccco1 (stereo not drawn),–,inactive: 8.67%
COc1cc(C2C=C(C(=O)O)Nc3ncnn32)ccc1O (stereo not drawn),–,inactive: -1.29%
Cn1nnc(NC(=S)NC(=O)c2ccco2)n1,–,inactive: -3.28%
COc1cc(CNc2ccccc2SC)cc(OC)c1OC,"inconclusive: 31.6 µM [inhibitor, partial curve]",–
Cc1ccc(C(=O)Nc2ccc3c(c2)OCO3)cc1,"inconclusive: 15.8 µM [inhibitor, partial curve]",–
Cn1c(=O)c2c(nc(N3CCCCCC3)n2Cc2cccc3ccccc23)n(C)c1=O,"inconclusive: 22.4 µM [inhibitor, partial curve]",–
CCOC(=O)C1CCN(S(=O)(=O)c2ccc(C)c(C)c2)CC1,–,inactive: 0.859%

SMILES,Potency,"activity, negative = inhibition"
CC(C)(C)OC(=O)NCCc1n[nH]c(=S)o1,–,inactive: -7.15%
COC(=O)c1c(NC(=O)/C=C/C(=O)O)sc(C)c1-c1ccc(C(C)C)cc1,"inconclusive: 28.2 µM [inhibitor, partial curve]",–
CCN1/C(=C/C=C/c2oc3ccc(-c4ccccc4)cc3[n+]2CC)Oc2ccc(-c3ccccc3)cc21,"inconclusive: 20 µM [inhibitor, single point]",–
CC(=O)Nc1ccc2ccc3cccc4ccc1c2c34,"inconclusive: 17.8 µM [inhibitor, partial curve]",–
Cc1ccc([N+](=O)[O-])cc1S(=O)(=O)NCCc1c(C)[nH]c2ccccc12,"inconclusive: 20 µM [inhibitor, single point]",–
CN(C)c1ccc(/C=C/C(=O)c2ccccc2O)cc1,active: 3.98 µM,–
CCN(CC)c1ccc(NC(=S)NC(=O)c2ccco2)cc1,"inconclusive: 5.62 µM [inhibitor, partial curve]",–
O=C(NC(=S)N1CCN(C/C=C/c2ccccc2)CC1)c1ccc(Cl)nc1,–,inactive: -9.54%
CCn1c(SCC(=O)NC2CCCCC2)nnc1-c1cc2cccc(OC)c2o1,"inconclusive: 11.2 µM [inhibitor, partial curve]",–
COC(=O)[C@@]1(Cc2ccccc2)C=C[C@@H](C)N1C(=O)c1ccccc1,–,inactive: -12.7%
COc1ccc(NC(=O)C2CCN(c3cc(C)nc4c(-c5ccc(Cl)cc5)c(C)nn34)CC2)cc1,–,inactive: -12.9%
O=C(NC(=S)NNC(=O)c1cc2ccccc2cc1O)c1ccco1,active: 12.6 µM,–
Cc1ccc(C(=O)N2CCN(c3ccc(NC(=O)COc4ccccc4C)cc3)CC2)cc1,"inconclusive: 10 µM [inhibitor, partial curve]",–
O=C(Nc1ccccc1)Nc1ccc(Oc2cccnc2)nc1,–,inactive: 7.61%
Cc1ccc(C2C=C(c3ccccc3)Nc3nc(NS(C)(=O)=O)nn32)cc1 (stereo not drawn),"inconclusive: 28.2 µM [inhibitor, single point]",–
Cc1c(-c2ccccc2)c(=O)oc2c(CN3CCOCC3)c(O)ccc12,–,inactive: 2.45%
COc1ccc(OC)c(NC(=O)NC2(C(F)(F)F)Oc3ccccc3O2)c1,"inconclusive: 31.6 µM [inhibitor, single point]",–
O=C(CSc1ncc(-c2ccccc2)nn1)NCc1ccco1,–,inactive: -6.93%
COc1cnc(-c2ccccc2)nc1OC,–,inactive: 2.23%
CCN(c1ccccc1)c1cc(C)nc2nc(C)nn12,–,inactive: 2.76%
Cc1nn(S(=O)(=O)c2ccc(F)cc2)c(C)c1S(=O)(=O)N1CCCCCC1,–,inactive: 4.67%
CCCCOc1ccc(/C(O)=C2/C(=O)C(=O)N(CCCOC)C2c2ccncc2)cc1C (stereo not drawn),"inconclusive: 0.282 µM [inhibitor, full curve, poor fit]",–
COc1cc(-c2cc(OC)c3c(C)oc(C)c3c(=O)c2)ccc1OC(=O)c1cccc(C)c1,"inconclusive: 10 µM [inhibitor, partial curve]",–
CCOc1cccc(C2C(C(=O)c3ccc(C)o3)=C(O)C(=O)N2c2nccs2)c1 (stereo not drawn),"inconclusive: 20 µM [inhibitor, partial curve]",–
